# Over roughly 81,000 sequences, “one-hybrid fitness for binding NBS DNA” has its median near -0.1; the highest 2% begin near 0.36. Some of the results follow.
# B1: Caulobacter ParB omega fusion; a variant is named by its letters at X, in order, B8GW30 (parent)
# chain: MESVVVGEPGMSEGRRGLGRGLSALLGEVDAAPAQAPGEQLGGSREAPIEILQRNPDQPRRTFREEDLEDLSNSIREKGVLQPILVRPSPDTAGEYQIVAGERAWRAAQRAGLKTVPIMVRELDDLAVLEIGIIENVQRADLNVLEEALSYKVLMEKFERTQENIAQTIGKSXSHVANXMRLLXLPDEVQSYLVSGELTAXHARAIAAAADPVALAKQIIEGGLSVRETEALARKAPNLSAGKSKGGRPPRVKDTDTQALESDLSSVLGLDVSIDHRGSTGTLTITYATLEQLDDLCNRLTRGI
# Variants of: B1
# Test: one-hybrid fitness for binding NBS DNA (the Noc-binding site; scaled: cognate 1, non-cognate 0); higher = stronger binding
# Conditions: with NBS DNA site
# Method in brief: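 Values were rescaled so that cognate is 1 and non-cognate is 0. Each is a fitness, the log change in a variant's read ratio to wild type from Illumina reads of plasmids before and after selection, with three replicate libraries pooled and variants under 10 reads dropped. Selection of the Caulobacter ParB libraries, four specificity codons randomised, used E. coli USO with a HIS3 reporter, site 19 bp from the promoter, on M9-minus-histidine with 0.1 mM IPTG and 5 mM 3-AT for 48 hours at 37°C.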
row,Variant,one-hybrid fitness for binding NBS DNA
1,FCRM,≤ 0.2
2,PCTR,≤ 0.2
3,KIAG,≤ 0.2
4,CWPI,≤ 0.2
5,SMTN,≤ 0.2
6,LVYC,≤ 0.2
7,LHNC,≤ 0.2
8,FCKS,≤ 0.2
9,AASF,≤ 0.2
10,HAPV,≤ 0.2
11,TFTM,≤ 0.2
12,THQF,≤ 0.2
13,ANID,≤ 0.2
14,LSCR,≤ 0.2
15,RVHD,≤ 0.2
16,ACLS,≤ 0.2
17,VYTQ,≤ 0.2
18,LMDT,≤ 0.2
19,EKNM,≤ 0.2
20,AIKD,≤ 0.2
21,YECV,≤ 0.2
22,SARA,≤ 0.2
23,KFKT,≤ 0.2
24,LCDD,≤ 0.2

row,Variant,one-hybrid fitness for binding NBS DNA
1,IRNK,≤ 0.2
2,AFGC,≤ 0.2
3,SSVV,≤ 0.2
4,RAAD,≤ 0.2
5,LWSF,≤ 0.2
6,FGPC,≤ 0.2
7,APHI,≤ 0.2
8,EVTI,≤ 0.2
9,FEEG,≤ 0.2
10,LLSP,≤ 0.2
11,YDRR,≤ 0.2
12,SLYF,≤ 0.2
13,KTNS,≤ 0.2
14,VQYV,≤ 0.2
15,HPSM,≤ 0.2
16,QHKF,0.297
17,DLQS,≤ 0.2
18,ADYV,≤ 0.2
19,TITS,≤ 0.2
20,ICGR,≤ 0.2
21,LNRC,≤ 0.2
22,QVLT,≤ 0.2
23,TPPE,≤ 0.2
24,YAVG,≤ 0.2

row,Variant,one-hybrid fitness for binding NBS DNA
1,ISTG,≤ 0.2
2,PTRF,≤ 0.2
3,MIRT,≤ 0.2
4,QSVP,≤ 0.2
5,FQFL,≤ 0.2
6,VAHW,≤ 0.2
7,MPPE,≤ 0.2
8,SQRS,≤ 0.2
9,HYPT,≤ 0.2
10,NHYI,≤ 0.2
11,RHEH,≤ 0.2
12,SKIG,≤ 0.2
13,ALVE,≤ 0.2
14,THLR,≤ 0.2
15,CLGE,≤ 0.2
16,EGLC,≤ 0.2
17,ELQE,≤ 0.2
18,YIRH,≤ 0.2
19,VFPR,≤ 0.2
20,EMFR,≤ 0.2
21,TLTN,≤ 0.2
22,RTFW,≤ 0.2
23,ELAG,≤ 0.2
24,YTLC,≤ 0.2

row,Variant,one-hybrid fitness for binding NBS DNA
1,ARSK,≤ 0.2
2,YAGW,≤ 0.2
3,FKRG,≤ 0.2
4,RCMY,≤ 0.2
5,YTNR,≤ 0.2
6,KGQY,≤ 0.2
7,YASY,≤ 0.2
8,GETQ,≤ 0.2
9,RFGK,≤ 0.2
10,RVPC,≤ 0.2
11,ANHC,≤ 0.2
12,CYTD,≤ 0.2
13,TMHW,≤ 0.2
14,FMTC,≤ 0.2
15,AYIS,≤ 0.2
16,KGTW,≤ 0.2
17,SGMD,≤ 0.2
18,TNRG,≤ 0.2
19,WMQT,≤ 0.2
20,LPMS,≤ 0.2
21,PERG,≤ 0.2
22,KYKF,≤ 0.2
23,MMKN,≤ 0.2
24,PSPI,≤ 0.2

row,Variant,one-hybrid fitness for binding NBS DNA
1,LYQE,≤ 0.2
2,YIHY,≤ 0.2
3,RRHV,0.314
4,QFPM,≤ 0.2
5,LGVM,≤ 0.2
6,SRNK,≤ 0.2
7,VEQR,≤ 0.2
8,PPMN,≤ 0.2
9,PCIS,≤ 0.2
10,TCWR,≤ 0.2
11,SPRA,≤ 0.2
12,NCMS,≤ 0.2
13,EKDF,≤ 0.2
14,SPCC,≤ 0.2
15,TKMN,≤ 0.2
16,MPNL,≤ 0.2
17,PTVR,≤ 0.2
18,KAYG,≤ 0.2
19,VNNF,≤ 0.2
20,LVWH,≤ 0.2
21,RNIL,≤ 0.2
22,NMSI,≤ 0.2
23,HMML,≤ 0.2
24,YFTR,≤ 0.2

row,Variant,one-hybrid fitness for binding NBS DNA
1,VMKR,0.208
2,GLSW,≤ 0.2
3,NVNA,≤ 0.2
4,WHLT,≤ 0.2
5,NAGY,≤ 0.2
6,LVPF,≤ 0.2
7,QRRT,0.863
8,WSEI,≤ 0.2
9,QAHK,≤ 0.2
10,SRQQ,≤ 0.2
11,RIHI,≤ 0.2
12,HEKF,≤ 0.2
13,MWAR,≤ 0.2
14,NSSM,≤ 0.2
15,ALQC,≤ 0.2
16,GHLA,≤ 0.2
17,ITTC,≤ 0.2
18,PTYC,≤ 0.2
19,DPRY,≤ 0.2
20,HTYR,≤ 0.2
21,RIAD,≤ 0.2
22,HQVC,≤ 0.2
23,TPPR,≤ 0.2
24,INMN,≤ 0.2

row,Variant,one-hybrid fitness for binding NBS DNA
1,GTSH,≤ 0.2
2,IQGC,≤ 0.2
3,SALP,≤ 0.2
4,DVPF,≤ 0.2
5,DTAF,≤ 0.2
6,HDNA,≤ 0.2
7,MQHG,≤ 0.2
8,APVM,≤ 0.2
9,PLQQ,≤ 0.2
10,KWLA,≤ 0.2
11,MSGG,≤ 0.2
12,FAGG,≤ 0.2
13,TIPY,≤ 0.2
14,THYI,≤ 0.2
15,RVCN,≤ 0.2
16,PCYC,≤ 0.2
17,NNWS,≤ 0.2
18,TTFP,≤ 0.2
19,SAFS,≤ 0.2
20,HIRV,≤ 0.2
21,RNIT,≤ 0.2
22,GMCS,≤ 0.2
23,VMTL,≤ 0.2
24,NRTF,≤ 0.2

row,Variant,one-hybrid fitness for binding NBS DNA
1,TDPV,≤ 0.2
2,GIKA,≤ 0.2
3,GCHI,≤ 0.2
4,EQTA,≤ 0.2
5,KAQC,≤ 0.2
6,PGPV,≤ 0.2
7,PPDI,≤ 0.2
8,QMHF,≤ 0.2
9,PMHA,≤ 0.2
10,RTFR,0.441
11,VHNY,≤ 0.2
12,HYCR,≤ 0.2
13,SHPN,≤ 0.2
14,RMPN,≤ 0.2
15,VIEL,≤ 0.2
16,HHYR,≤ 0.2
17,VIYS,≤ 0.2
18,RQDW,≤ 0.2
19,EPNM,≤ 0.2
20,KHPS,≤ 0.2
21,KRAA,0.312
22,RNGN,≤ 0.2
23,QCFR,0.517
24,FVYS,≤ 0.2

row,Variant,one-hybrid fitness for binding NBS DNA
1,EKTS,≤ 0.2
2,ITRS,≤ 0.2
3,DMVT,≤ 0.2
4,AALI,≤ 0.2
5,PMGI,≤ 0.2
6,SGPP,≤ 0.2
7,FWIG,≤ 0.2
8,HPTE,≤ 0.2
9,KFQS,≤ 0.2
10,FSVR,≤ 0.2
11,RMNA,≤ 0.2
12,YRCA,≤ 0.2
13,WLGR,≤ 0.2
14,KTRN,≤ 0.2
15,PMRI,≤ 0.2
16,KRTN,≤ 0.2
17,SLYW,≤ 0.2
18,PNSF,≤ 0.2
19,PSCQ,≤ 0.2
20,SMVN,≤ 0.2
21,RANK,≤ 0.2
22,NLWS,≤ 0.2
23,PIRW,≤ 0.2
24,FPKG,≤ 0.2

row,Variant,one-hybrid fitness for binding NBS DNA
1,LEPH,≤ 0.2
2,PSLC,≤ 0.2
3,FNLM,≤ 0.2
4,DHRV,≤ 0.2
5,YFHG,≤ 0.2
6,CLGS,≤ 0.2
7,TFDV,≤ 0.2
8,QPTA,≤ 0.2
9,GCES,≤ 0.2
10,DIQL,≤ 0.2
11,TYCS,≤ 0.2
12,RVGF,≤ 0.2
13,SWLQ,≤ 0.2
14,KFKV,≤ 0.2
15,MWKG,≤ 0.2
16,RIDF,≤ 0.2
17,LNCY,≤ 0.2
18,IFYY,≤ 0.2
19,SWRN,≤ 0.2
20,STKF,≤ 0.2
21,VKPD,≤ 0.2
22,NYLR,≤ 0.2
23,QNDT,≤ 0.2
24,CPLF,≤ 0.2

row,Variant,one-hybrid fitness for binding NBS DNA
1,SDEG,≤ 0.2
2,GHLG,≤ 0.2
3,SGCS,≤ 0.2
4,PSEA,≤ 0.2
5,TRAN,≤ 0.2
6,PSSM,≤ 0.2
7,HETH,≤ 0.2
8,QKTN,≤ 0.2
9,IVLC,≤ 0.2
10,QGPF,≤ 0.2
11,NQFL,≤ 0.2
12,HVLY,≤ 0.2
13,RPAS,≤ 0.2
14,IPEV,≤ 0.2
15,DDRT,≤ 0.2
16,HNMT,≤ 0.2
17,LEYV,≤ 0.2
18,GLDC,≤ 0.2
19,ISHS,≤ 0.2
20,RCQW,≤ 0.2
21,SYDM,≤ 0.2
22,RAHM,≤ 0.2
23,PSEQ,≤ 0.2
24,QTWG,≤ 0.2

row,Variant,one-hybrid fitness for binding NBS DNA
1,LVVK,≤ 0.2
2,LNEW,≤ 0.2
3,VPKV,≤ 0.2
4,PNPI,≤ 0.2
5,DCST,≤ 0.2
6,ENMW,≤ 0.2
7,QVLV,≤ 0.2
8,MLKF,≤ 0.2
9,AAEF,≤ 0.2
10,PWQI,≤ 0.2
11,WLGF,≤ 0.2
12,MVIG,≤ 0.2
13,YKRA,≤ 0.2
14,RIVN,≤ 0.2
15,SSTC,≤ 0.2
16,GRSI,≤ 0.2
17,CGKR,0.327
18,AHMS,≤ 0.2
19,HVES,≤ 0.2
20,APMG,≤ 0.2
21,ASMM,≤ 0.2
22,PPDT,≤ 0.2
23,KPVY,≤ 0.2
24,KRRQ,0.245

row,Variant,one-hybrid fitness for binding NBS DNA
1,IPPV,≤ 0.2
2,EESL,≤ 0.2
3,QGRP,≤ 0.2
4,ETCV,≤ 0.2
5,KAMY,≤ 0.2
6,IGRF,≤ 0.2
7,VPLC,≤ 0.2
8,NYKY,≤ 0.2
9,QCHK,≤ 0.2
10,KLSE,≤ 0.2
11,DHTL,≤ 0.2
12,GLYY,≤ 0.2
13,RQRN,0.221
14,LKTK,≤ 0.2
15,WYRC,≤ 0.2
16,AMRA,≤ 0.2
17,RAKW,≤ 0.2
18,WMDF,≤ 0.2

# — a collection of fitness landscapes (doi:10.1016/j.celrep.2020.107928)
